The other results are listed elsewhere or left out. At the low end of the ranking, values are background and their order means little.
These sequences were tested against T1, GST-Rok-C97-191 (UniProt O34857) (assay: protein binding microarray). Conditions: Rok is a gene silencer of Bacillus subtilis; high values mean tight binding; most listed sequences are background and not binding sites; double strand, one strand shown.
T1 sequence: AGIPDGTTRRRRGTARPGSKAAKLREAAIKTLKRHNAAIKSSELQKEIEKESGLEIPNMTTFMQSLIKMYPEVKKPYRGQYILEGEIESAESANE
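Further: rank score from −0.5 (least bound) to 0.5 (best bound).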

Sequence | binding signal [E-score]
CGTCGTCC | -0.217
TCTGTACA | -0.0202
AGATGTTC | 0.0735
ACCAGTAC | 0.0676
ATGCCATC | -0.108
CAGCCCAA | -0.0664
AACAAAGA | 0.0648
AGTCTACC | -0.0117
AATCCGCT | -0.00819
GGCCTCTA | -0.148
GAGCACTC | -0.0202
CCGCCCTA | 0.00839
AACATAGA | 0.101
GTCGTGTA | 0.0748
GGCGAATA | 0.0467
GGCTCGGA | -0.423
ATCATTCC | 0.0814
CAGTGCTC | -0.332
GCTGACCA | -0.0571
TCCTTAGA | -0.0206
ACAGGAAC | -0.0814
AAGGCTCC | -0.162
CGAACGTA | -0.048
AGGATTAC | -0.118
TCTAGTCA | 0.196

Sequence | binding signal [E-score]
TCGCGGCA | -0.19
ATAAGAAC | 0.0806
TAAGCGCA | -0.025
ATAAATAT | 0.369
GCACGGCA | -0.224
CAAATAGC | 0.141
GGAATGCA | -0.0343
GCATAGCA | 0.08
TATGATAA | 0.26
AGAAGCCC | -0.248
AGGCGTTC | -0.107
CTCCCGAG | -0.091
GTGGAGTA | 0.12
AATAATAG | 0.405
TGCCTTAA | 0.0526
TACCAACA | 0.0546
AGCGGATA | 0.215
ACGCGGTG | -0.255
GTTAGCGA | 0.0595
TCCCAGGA | 0.112
ACACTTCT | 0.189
CCCAATTA | 0.137
AAAAGTTT | 0.0597
CCTGAGGC | -0.0873
CATAGTCA | -0.0508

Sequence | binding signal [E-score]
GATCCCGC | -0.105
AATAATAA | 0.371
CTGGTCCA | -0.212
ATACGGAA | 0.219
AGCGGGTA | -0.195
ATAGCGAA | 0.197
AGTGTTTG | 0.1
CTCGAGAC | -0.079
GAAAAACA | 0.0708
ACTTCGTA | 0.139
AGAGACCT | -0.171
GGCGTGAC | -0.263
AGGGGTAC | -0.11
ACGCTGGA | -0.183
GTGGCACA | -0.254
GCGATACC | 0.122
CAAGCCCG | -0.232
ATTGTATC | 0.256
AAAGGATT | -0.186
AGTTTATC | 0.201
CTTGTATC | 0.0186
AACTGCGT | -0.079
ATAGAACC | 0.154
CTGTGTCA | -0.239
AAGCCCAA | -0.21

Sequence | binding signal [E-score]
ACTGTCCA | -0.0143
GATATTAA | 0.379
GGACGCCC | -0.434
AGACATCA | -0.0505
CATGCGTA | -0.12
GGATATAA | 0.3
AATTTACA | 0.331
AGAACACT | 0.0462
GTGACCAA | -0.126
ACTAAATC | 0.35
AGGTCGAG | 0.000538
CGTCTGTA | 0.14
GAAAGCGA | 0.0717
ATGATTCA | -0.0396
AACAAAAC | 0.035
AAAGATAA | 0.33
CACTGCCC | -0.245
TATGCGAA | 0.0471
CCGACTCA | -0.123
GATTCCAC | -0.131
CGTAGCAA | 0.0103
GCCAGGGC | -0.407
GGGGGTCA | -0.339
GTCAGTCA | 0.0612
AGTTTAAC | 0.088

Sequence | binding signal [E-score]
CAGTTATG | 0.0833
GCACCCAC | -0.189
CCATCCGC | -0.213
CCGTGTCA | -0.224
CGGGGTTC | -0.0694
CCAGCGCA | 0.0638
AGGAGCCA | -0.358
TCAACAGA | -0.0186
AATCTGGC | -0.179
ATTGCCTA | 0.0237
CATGCCGC | -0.228
ACAGCTAC | 0.118
CAACCTTA | 0.0605
CAAAGGAA | -0.279
AGATTTTG | 0.108
CATATCCA | 0.188
GGATCGCA | -0.162
ATGTAGAA | 0.38
CGGAGCTC | -0.247
TCGACCAA | -0.0422
GATCGCCC | 0.0523
AGGACTGA | -0.0415
GCCGTGGA | -0.168
AACTGGTG | -0.0392
AACTCGTC | 0.0338

Sequence | binding signal [E-score]
ATCTTCCC | -0.0283
CGATGCAA | 0.000508
GTATGCTA | 0.191
TCATACAA | 0.126
CCGTTGAC | -0.272
GACTACTC | 0.127
AAAATACC | 0.357
GCGCTAAC | 0.141
ACTCGTAT | 0.0526
AGGCTTAC | -0.296
ACTCGTAA | 0.176
ATTTGACG | -0.02
GAACTGCC | 0.00234
GCATATAA | 0.0606
GGGTCTGA | -0.0346
CCGAATCA | -0.0264
CGGGCAAC | -0.269
CCCCTCGC | -0.146
CATTCCAG | -0.144
CACGCAGA | 0.0214
AACAAGCC | -0.0361
CGGGCCAG | -0.274
ACGCGATA | 0.141
CTGGGAAA | -0.136
CGCCCCTA | -0.241

Sequence | binding signal [E-score]
AGCAACAT | 0.0841
GCGGTGTA | 0.00165
ATGATTGG | -0.187
AATGGTTA | 0.162
CCAATTAA | 0.00432
CGCGCCGC | -0.298
AGGGAGTG | -0.264
ATTGCTAC | 0.184
CCTGTGGC | -0.25
AACACCAT | -0.11
CGTGTCCA | -0.0989
CTCACCTC | -0.104
CCTGTGAA | -0.122
GATCGCGA | 0.0474
CCAACAGA | -0.14
GCTATTAA | 0.106
AGTTTTAG | 0.28
CATAAAAG | 0.105
ATTTGCGC | 0.202
GGTGGATA | 0.142
AGAAACGG | 0.0626
CAATGGCC | -0.0152
GGAAAAGA | -0.0888
CTAAAGAG | 0.00481
GCTCTTCA | -0.136

Sequence | binding signal [E-score]
ACTCATTC | 0.131
GAATCATC | -0.222
TCATAACA | 0.042
ACGACCTC | -0.134
TGAACGCA | -0.16
CTGCGACA | -0.237
CTGCACAA | 0.0821
ATTGGGAA | -0.00816
AACATGGT | 0.0855
CGAACGAG | -0.127
ATTCTACC | 0.467
CCGGGGGC | -0.336
CAAGATAG | 0.276
TCCGCGAA | 0.149
GCGACAAC | -0.157
ACGGAGCA | -0.0761
GCCTATCA | -0.11
AGGACCGG | -0.171
AAGGTACT | 0.242
AGGGTCGA | -0.214
GGACTTAC | 0.0851
CTCATCAA | -0.0647
GCTCACCA | -0.291
CGAGCTGC | -0.138
AGTGTACG | -0.0734

Sequence | binding signal [E-score]
AGATTGAG | 0.138
ACCGCAGT | -0.0133
AATCAGAG | -0.0995
ATTTGGTG | 0.181
ACTGAAAG | -0.103
GAGTTTGA | -0.16
CGCACCCG | -0.217
GTGAACAC | -0.175
CCGCAGTC | -0.245
AAAGGGTT | -0.0515
CGTAACGC | -0.183
CGGTTTTC | -0.165
ATCGCACG | -0.0954
TGATTTAA | 0.0609
CAAAACCC | -0.187
ATAGAGTC | -0.12
GGCCTACA | -0.0664
GGTTGGAA | -0.0495
CGCGCATC | -0.196
CATATCCG | 0.176
AGACGGCG | -0.219
CACTATGC | 0.159
TGCGCCAA | -0.134
AGCCCACG | -0.147
CTTGTGCA | 0.052

Sequence | binding signal [E-score]
AATGATCA | 0.156
CCCGGCGC | -0.345
GTGCAAGA | 0.0658
GTCTAAAC | 0.00715
AATTGTAA | 0.256
AGTACCAT | 0.288
ATCTTATG | 0.18
ACCACAAC | 0.109
ACTACAGT | 0.181
CTCTATTA | 0.246
GACATTGA | -0.00156
ATACTCAT | -0.00471
CTCCCTGC | -0.203
GAAACTAC | 0.46
CTTCGCGC | 0.074
CGTTGAAC | -0.0772
CCCTTCTA | -0.0641
CAGCACCC | -0.108
GCTGTTTA | 0.0646
CCGTTCAA | -0.00922
GATTGTGC | 0.0266
TACCGTCA | 0.139
AGGCTGCC | -0.323
AATTCTAC | 0.421
CCATAAGC | -0.139

Sequence | binding signal [E-score]
CAACCACG | -0.0255
CCTATGTA | 0.302
AGAACCGC | 0.0835
ACCAACGC | -0.181
GACCCTCC | -0.311
CACGTACC | -0.173
CACCTGCG | -0.0845
AGTGAACT | 0.0759
GCGAGCCC | -0.0925
GCGTGCGA | -0.227
GGCCTTTA | -0.116
ACGCTAAG | 0.0377
AAGCTTGA | -0.261
GCGAGTTA | 0.0475
CCAAGAAA | 0.168
ATACCTGA | 0.0452
CTAGACTA | 0.0281
AAACCGAG | -0.189
CTAAAGTA | 0.208
AAGCGGTA | 0.057
GACGTGAA | 0.0747
GGTCAGTA | 0.125
CCCTCGAA | -0.133
AACCCTCG | -0.166
AAATACTC | 0.205

Sequence | binding signal [E-score]
ACCCGCAA | -0.0817
CACGCTCG | -0.126
ACACCCCA | -0.112
AGGAAGGA | -0.123
CTTAAAAC | 0.0491
AATACCAT | 0.292
AATCCGGC | 0.0531
CGCAATAG | 0.121
TCATTGGA | -0.125
ATCATATC | 0.139
AACCAAAC | -0.132
AATACCCA | 0.199
ACCCCGGG | -0.28
GTTAGGAA | 0.056
GAAAGGCC | -0.322
CACACACC | 0.000506
CACCATCA | -0.0781
ATTCGCCA | -0.031
GAATGGAA | -0.13
CTAACCGC | -0.0984
GGATTGAC | -0.054
TCGTGCAA | -0.08
AGATATAA | 0.282
CTGGCCGC | -0.238
ATAGGTGC | 0.0718

Sequence | binding signal [E-score]
CGGAAATA | 0.151
CATTAGGC | -0.163
AGGCGCAT | -0.286
CGATCGTC | -0.0949
ATTTACGG | 0.216
AAAGCGCA | -0.00813
AGGATAAA | -0.0584
AAAGCTGA | -0.147
CTAGATCA | 0.199
TGGCGCCA | -0.435
CACTGCTC | -0.167
GGGATAAA | 0.0651
GGGACGCA | -0.299
AAAACTTG | -0.0585
AAAAAATG | -0.032
CCAAATAC | 0.137
CAGGCACA | -0.112
ACGGGCAT | -0.0946
CGCTTATA | 0.194
GGGTGGCA | -0.252
CCAAAGCG | -0.105
GCTCTATA | 0.0788
ACCGTCTA | -0.0436
ACGCAAGC | 0.0464
ACCAAATA | 0.219

Sequence | binding signal [E-score]
ATTAAGAG | 0.0634
AAGCAAAG | -0.131
AGACGTTG | -0.222
GGGTCCCA | -0.368
ATCTCGTA | 0.151
CACAGGGA | -0.088
ACATGCGC | -0.242
GTTATTCA | 0.014
CAAAACAA | -0.0275
AACGTCCG | -0.13
GATGTTGC | -0.123
TAACGTGA | 0.0636
TGCAGGCA | -0.177
CAAAACAG | 0.067
GATTCCCA | 0.00937
AGGCGCTG | -0.169
GGGAGTTA | -0.0419
GATAGCTA | 0.367
AGACAATG | 0.00834
